Measurements as given in the supplement of paper PMC9334596.
Several values for one entry are separate records, joined by “and”; a condition that tells them apart may be missing. Equal entries are not always repeated. The full ranking holds about 5,300 compounds; the median of “PER2::LUC luminescence relative to vehicle control” is about 0.96, and the highest 2% start at about 1.3. The list shows a part of the results.

Test system: mPer2Luc MEF
Assay: PER2::LUC luminescence relative to vehicle control (fold of vehicle); higher = higher PER2::LUC reporter signal
Conditions: 10 µM
Outline: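 Mouse embryonic fibroblasts carrying the mPer2Luc reporter were seeded at ~3000 cells per well in 384-well plates, 48 h before compounds from commercial libraries were added at 10 μM. Cells were grown in DMEM with 10% FBS at 37 °C and 5% CO2. Luminescence was read with the ONE-Glo luciferase assay system 24 h and 30 h after treatment, followed by an alamarBlue viability assay. The value is PER2::LUC luminescence as fold of vehicle control.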

| Compound | PER2::LUC luminescence (time after treatment 24 h) | PER2::LUC luminescence (time after treatment 30 h) |
| --- | --- | --- |
| Cc1sc2c(c1C)C(c1ccc(Cl)cc1)=N[C@@H](CC(=O)OC(C)(C)C)c1nnc(C)n1-2 | 0.153 | 0.14 |
| COc1ccc(OC)c(C(O)C(C)N)c1 (centres undefined) | 1.09 | 1.04 |
| Cc1ncc(C[n+]2csc(CCO)c2C)c(=O)[nH]1 | 1.01 | 0.895 |
| CC([C@H](O)c1ccccc1)N(C)C (some centres undefined) | 0.928 | 0.985 |
| C=CCN1C[C@H](C)N([C@@H](c2ccccc2)c2ccc(C(=O)N(CC)CC)cc2)C[C@H]1C | 0.99 | 0.937 |
| CCC(=O)O[C@H]1CC[C@H]2[C@@H]3CCC4=CC(=O)CC[C@]4(C)[C@H]3CC[C@]12C | 0.867 | 0.975 |
| c1ccc2sc(C3(N4CCCCC4)CCCCC3)cc2c1 | 0.863 and 0.801 | 0.807 and 0.814 |
| COc1cc(CC(C)N)c(OC)cc1I (racemic) | 0.894 | 0.844 |
| C[N+]1(C)C2CCC1CC(OC(=O)c1c[nH]c3ccccc13)C2 (centres undefined) | 1.12 | 0.868 |
| N#C/C(=C\c1ccc(O)c(O)c1)C(N)=S | 1.04 | 1.07 |
| CCCC[N+]1(C)[C@@H]2C[C@@H](OC(=O)[C@H](CO)c3ccccc3)C[C@H]1[C@@H]1O[C@@H]12 (single isomer, unassigned; (-)) | 0.876 | 0.756 |
| C(=C\c1ccccc1)/CN1CCN(CCOC(c2ccccc2)c2ccccc2)CC1 | 0.799 | 0.72 |
| COC(N)=O | 1.07 | 1.01 |
| C[C@H]1CC[C@@H]2[C@@H](C)[C@H]3[C@H](C[C@H]4[C@@H]5CC=C6C[C@@H](O[C@@H]7O[C@H](CO)[C@H](O)[C@H](O[C@@H]8O[C@H](CO)[C@@H](O)[C@H](O)[C@H]8O)[C@H]7O[C@H]7O[C@@H](C)[C@H](O)[C@@H](O)[C@H]7O)CC[C@]6(C)[C@H]5CC[C@]34C)N2C1 [Alpha-SOLANINE] | 1.03 | 1.09 |
| COc1cc2c(cc1O)C[C@H]1c3c(cc(O)c(OC)c3-2)CCN1C | 1.05 | 1.05 |
| CN1CC(CNC(=O)OCc2ccccc2)CC2c3cccc4c3c(cn4C)CC21 (centres undefined) | 0.569 | 0.482 |
| CCC1(CC)C(=O)NC(=O)NC1=O | 0.967 | 0.945 |
| O=C1CCO1 | 0.922 | 0.962 |
| OC(c1ccccc1)(c1ccccc1)C1CCNCC1 | 0.643 | 0.77 |
| CC(=O)O[C@@H]1C[C@H]2C(C)(C)C(=O)C=C[C@]2(C)[C@H]2CC[C@]3(C)C(=CC(=O)O[C@H]3c3ccoc3)[C@@]21C | 0.829 | 1.08 |
| C[C@]12CCC(=O)C=C1CC[C@@H]1[C@@H]2CC[C@]2(C)C(=O)CC[C@@H]12 | 0.802 | 0.789 |
| NC(=O)OCCCc1ccccc1 | 0.842 | 0.985 |

| Compound | PER2::LUC luminescence (time after treatment 24 h) | PER2::LUC luminescence (time after treatment 30 h) |
| --- | --- | --- |
| NC1CCc2cc(O)c(O)cc2C1 (centres undefined) | 1.15 and 1.03 | 0.977 and 0.993 |
| N[C@@H]1C[C@H]1c1ccccc1.N[C@H]1C[C@@H]1c1ccccc1 | 1.14 | 0.804 |
| NC(CP(=O)(O)O)C(=O)O (racemic) | 1.09 and 1.12 | 0.995 and 1.02 |
| CN1C2CCC1CC(O)C2 (centres undefined) | 1.04 | 1.08 |
| C#CC(C)(O)CC (centres undefined) | 1.17 and 0.813 | 0.949 and 0.909 |
| COc1cc(OC)c(OC)cc1C=O | 1.03 and 1.17 | 0.958 and 1.22 |
| C[N+]1(C)CCCC(OC(=O)C(O)(c2ccccc2)c2ccccc2)C1 (centres undefined) | 0.879 | 1.03 |
| O=C(O)[C@@H]1C[C@H]2C[C@@H](CP(=O)(O)O)CC[C@H]2CN1 | 1.03 | 0.966 |
| OCC1C(O)C(O)C2C(O)CCN12 (centres undefined) | 1.1 | 1.08 |
| COc1cc(N)c(Cl)cc1C(=O)NC1CN2CCC1CC2 (centres undefined) | 0.93 | 1.05 |
| C/C(O)=C(\C#N)C(=O)Nc1cc(Br)ccc1Br | 1.15 | 0.986 |
| COc1cc([C@@H]2c3cc4c(cc3[C@@H](O)[C@H]3COC(=O)[C@H]23)OCO4)cc(OC)c1O | 0.517 | 0.433 |
| Cc1ccccc1-n1c(Cn2ncc3c(N)ncnc32)nc2cccc(C)c2c1=O | 0.974 | 0.988 |
| NC(=O)[C@H](Cc1ccccc1)NC(=O)[C@H](Cc1c[nH]c2ccccc12)NC(=O)[C@@H]1CCCN1C(=O)[C@@H](N)Cc1ccc(O)cc1 | 1.02 | 0.941 |
| CCCC(C)(COC(N)=O)COC(=O)NC(C)C (centres undefined) | 0.917 | 1 |
| CCC1(C)CC(=O)NC(=O)C1 | 0.922 | 0.824 |
| COC(C)(C)CCC[C@H](C)C/C=C/C(C)=C/C(=O)OC(C)C | 0.969 | 0.994 |
| Cl[C@H]1[C@H](Cl)[C@@H](Cl)[C@@H](Cl)[C@H](Cl)[C@H]1Cl | 1.06 | 0.843 |
| CC1(C)C(C=C(Cl)c2ccc(Cl)cc2)C1C(=O)OC(C#N)c1ccc(F)c(Oc2ccccc2)c1 (centres undefined) | 0.944 | 0.997 |
| Oc1ccc(Cl)cc1Cc1cc(Cl)ccc1O | 0.995 | 0.95 |
| NC(=O)CN1CC(c2ccccc2)CC1=O (centres undefined) | 1 | 0.907 |
| CC(O)CN1CCN(CC(=O)[O-])CCN(CC(=O)[O-])CCN(CC(=O)[O-])CC1.[Gd+3] (centres undefined) | 1.04 | 0.84 |

| Compound | PER2::LUC luminescence (time after treatment 24 h) | PER2::LUC luminescence (time after treatment 30 h) |
| --- | --- | --- |
| CC(C)NC1CCn2c(=O)[nH]c3cccc(c32)C1O (centres undefined) | 1.03 | 0.954 |
| C[N@+]1(CC2CC2)CC[C@]23c4c5ccc(O)c4O[C@H]2C(=O)CC[C@@]3(O)[C@H]1C5 | 0.996 | 1.02 |
| Cc1ncsc1CCCl | 1.02 | 0.91 |
| CCC1(c2ccc(N)cc2)CCC(=O)NC1=O (racemic) | 0.88 | 1.04 |
| CNC1CC(c2ccc(Cl)c(Cl)c2)c2ccccc21 (centres undefined) | 0.674 | 0.682 |
| CCCCCCC(C)(C)c1ccc([C@@H]2C[C@H](O)CC[C@H]2CCCO)c(O)c1 | 0.824 | 0.966 |
| CCCn1c(=O)c2[nH]c(C3CCCC3)nc2n(CCCOC(=O)c2ccc(S(=O)(=O)F)cc2)c1=O | 0.904 | 1.01 |
| CCN1CCN(C(=O)Cc2ccc(Nc3ncc(F)c(Nc4ccc(C(=O)Nc5ccccc5Cl)cc4)n3)cc2)CC1 | 0.472 | 0.586 |
| CC(O)(CS(=O)(=O)c1ccc(F)cc1)C(=O)Nc1ccc(C#N)c(C(F)(F)F)c1 (centres undefined) | 0.939 | 0.85 |
| CN1CCc2cc3c(cc2C1C1OC(=O)c2c1ccc1c2OCO1)OCO3 (single isomer, unassigned; (+)) | 1.06 | 1.05 |
| CCOC(=O)c1cncn1[C@H](C)c1ccccc1 | 1.05 | 1.04 |
| CNC(=O)Oc1cccc2ccccc12 | 1.06 | 0.905 |
| CC([C@H](O)c1ccccc1)N(C)C (single isomer, unassigned; (-)) | 0.958 | 0.965 |
| C=CCc1ccc(OC)cc1 | 0.993 | 0.968 |
| NCC1(CC(=O)O)CCCCC1 | 1.04 and 0.952 | 0.954 and 1 |
| COc1cc2ccc(=O)oc2c2ccoc12 | 0.633 | 0.662 |
| O=c1cccc2n1C[C@@H]1CNC[C@H]2C1 | 1.03 and 1.01 | 1.01 and 0.906 |
| CC(N)C(O)c1ccccc1 (centres undefined) | 0.924 | 0.931 |
| CC1(C)C(=O)[C@@H]2O[C@@H]2[C@@]2(C)C1C[C@@H](O)[C@]1(C)C2CC[C@@]2(C)[C@H](c3ccoc3)OC(=O)C3OC321 (some centres undefined) | 0.95 | 1.03 |
| CC(C)C[C@H]1C(=O)N2CCC[C@H]2[C@]2(O)O[C@](NC(=O)[C@@H]3C=C4c5cccc6[nH]cc(c56)C[C@H]4N(C)C3)(C(C)C)C(=O)N12 | 0.802 | 0.71 |
| O=C(CCCN1CCC2(CC1)C(=O)NCN2c1ccccc1)c1ccc(F)cc1 | 1 and 1.01 | 0.89 and 0.822 |
| CCCN(CCC)C1CCc2ccc(O)cc2C1 (racemic) | 0.928 | 0.892 |

| Compound | PER2::LUC luminescence (time after treatment 24 h) | PER2::LUC luminescence (time after treatment 30 h) |
| --- | --- | --- |
| CN(C(=O)Cc1ccc(Cl)c(Cl)c1)[C@H](CN1CCCC1)c1cccc(N=C=S)c1 | 0.676 | 0.687 |
| O=C(O)CF | 1.08 | 1.08 |
| CC(C)Oc1cccnc1N(C)C1CCN(Cc2ccccc2)CC1 | 1.02 | 0.839 |
| CCN1C[C@]2(COC)CC[C@H](OC)[C@]34C5C[C@@H]6[C@@H](OC)C[C@@]7(OCO[C@@]7(C13)[C@@H](O)C24)C5[C@H]6OC (some centres undefined) | 0.86 | 0.989 |
| Fc1ccc(C(OCCN2CCN(C/C=C/c3ccccc3)CC2)c2ccc(F)cc2)cc1 | 0.615 | 0.609 |
| O=[N+]([O-])O[C@H]1CO[C@H]2[C@@H]1OC[C@H]2O[N+](=O)[O-] | 0.681 | 0.809 |
| CC(C)(O)[C@@H]1[C@H]2OC(=O)[C@@H]1[C@]1(O)C[C@H]3O[C@]34C(=O)O[C@H]2[C@]14C | 0.975 | 0.904 |
| CC(C)(C#N)O[C@@H]1O[C@H](CO)[C@@H](O)[C@H](O)[C@H]1O | 0.941 | 0.954 |
| CC(=O)O[C@H]1C(=O)[C@@]2(C)[C@H]([C@H](OC(=O)c3ccccc3)[C@]3(O)C[C@H](O)C(C)=C1C3(C)C)[C@]1(OC(C)=O)CO[C@@H]1C[C@@H]2O | 0.794 | 0.76 |
| NC(Cc1cc(O)c(O)cc1O)C(=O)O (racemic) | 1.04 | 0.853 |
| CN1C[C@H](CO)C[C@@H]2c3cccc4[nH]cc(c34)C[C@H]21 | 1.09 | 1.08 |
| c1cncc([C@@H]2CCCCN2)c1 | 0.924 | 0.933 |
| C=C(C)[C@H]1Cc2c(ccc3c(=O)c4c(oc23)COc2cc(OC)c(OC)cc2-4)O1 | 1.03 | 0.927 |
| CNC(C)C(O)c1ccccc1 (racemic) | 0.939 | 0.955 |
| O=c1[nH]oc2c1CCNC2 | 1.05 and 1.11 | 0.945 and 1.04 |
| C=CCc1cc(OC)c2c(c1OC)OCO2 | 0.956 | 0.927 |
| C[N+]1(C)CCc2cc3c(cc2[C@H]1[C@@H]1OC(=O)c2c1ccc1c2OCO1)OCO3 | 0.985 | 0.917 |
| Cc1nnc2n1-c1ccc(Cl)cc1C(c1ccccc1)=NC2 | 0.821 | 0.843 |
| CCC(C)C(=O)OC1CC2(C)C(c3ccoc3)OC(=O)CC23OC2(C)OC34C(OC(=O)C(C)C)C3(O)C(OC(=O)C5(C)OC5C)C5(C)CC3(O)C(C)(C5CC(=O)OC)C14O2 (centres undefined) | 0.871 | 0.875 |
| COc1ccc2c(c1O)-c1cccc3c1[C@@H](C2)N(C)CC3 | 1.14 | 0.994 |
| COc1ccc2c3c1O[C@H]1[C@@H](O)C=C[C@H]4[C@@H](C2)NCC[C@@]341 | 1.04 | 0.958 |
